Reference: US20230192839A1, “ANTIBODIES HAVING CONDITIONAL AFFINITY AND METHODS OF USE THEREOF” (PFIZER INC., priority 2017, published 2023)

Legend:
human CD33 = assay: Biacore SPR binding kinetics of anti-CD33 scFv-Fc clones with or without 10 µM MTX; settings: 37° C.
From the text: The first 4 rounds of panning used biotinylated CD33 antigen captured on streptavidin or neutravidin coated 96-well plates. […] 1536 clones were randomly chosen from the 4th and 5th round of panning against the CD33 antigen and their binding specificity determined by phage ELISA. Clones that specifically bound to CD33 were sequenced and all unique clones were subjected to a phage competition ELISA to assess their relative affinities to CD33 and sensitivity to MTX by measuring their binding strengths in the presence or absence of 10 µM (micromolar) MTX (i.e. in 0 or 10 µM MTX).
(§1) All binding kinetics analysis was performed on label-free Biacore surface plasmon biosensors (Biacore T200™ from GE Life Sciences) at 37° C. in 10 mM Hepes pH 7.4, 150 mM NaCl, 0.05% Tween-20 (HBST+), with or without 10 µM MTX. The Biacore data were processed in Biacore T200 Evaluation Software, and the data were double-referenced (Myszka, 1999, J Mol Recognit 12(5):279-284) and fit globally to a simple Langmuir with mass transport model to determine the equilibrium dissociation constant, KD, from the ratio of the kinetic rate constants (KD = koff/kon). In some cases the binding of antigen was very low (or not detectable) in the presence of 10 µM MTX and as a result kinetic rate constants could not be accurately determined. In these cases, a KD (or KD limit) was estimated based on the binding response at the highest analyte concentration tested or based on the typical limit of detection for a Biacore T200.

[1] = system: human epidermal growth factor receptor (EGFR); assay: Biacore SPR binding kinetics of anti-EGFR scFv-Fc clones with or without 10 µM MTX; settings: 37° C.; for koff, kinetics toward antigen with 0 µM MTX / kon, kinetics toward antigen with 0 µM MTX / koff, kinetics toward antigen with 10 µM MTX / kon, kinetics toward antigen with 10 µM MTX: pH 7.4, scFv-Fc
Experimental: as §1, with “T200. […]” for “T200.”

[2] = 10 µM MTX, pH 7.4, koff/kon, or estimated from binding response / limit of detection for weak interactions, read-out: KD, kinetics toward antigen with 10 µM MTX

B1: P02_B03: anti-CD33 clone with conditional affinity; VH SEQ ID NO: 33, VL SEQ ID NO: 34 (antibody, V domains shown)
VH: QVQLVESGGGLVQAGGSLRLSCAASRRSSRSWAMHWVRQAPGKGLEWVAVISYDGRLKYYADSVKGRFTISRDNAEYLVYLQMNSLRAEDTAVYYCAADQDVGSVGNYYGNGMDVWGQGTLVTVSS
VL: QSVLTQPPSASGTPGQRVTISCSGSSSNIGSNYVNWYQQLPGTAPKLLIYRNNQRPSGVPDRFSGSKSGTSASLAISGLRSEDEADYYCAAWDDNPRWVFGTGTKLTVL
modifications: Synthetic Antibody
koff, kinetics toward antigen with 0 µM MTX (human CD33; 0 µM MTX, pH 7.4, scFv-Fc): 0.023 s⁻¹ | kon, kinetics toward antigen with 0 µM MTX (human CD33; 0 µM MTX, pH 7.4, scFv-Fc): 140000 M⁻¹ s⁻¹ | Kd (human CD33; [2]): > 340 nM

B2: P08_D06: anti-EGFR clone with conditional affinity; VH SEQ ID NO: 123, VL SEQ ID NO: 124; also as scFv in CAR (antibody, V domains shown)
VH: QVQLVESGGGLVQAGGSLRLSCAASRRSSRSWAMHWVRQAPGKGLEWVAVISYDGRLKYYADSVKGRFTISRDNAEYLVYLQMNSLRAEDTAVYYCAADDDGDVYAGYSYGGFDYWGQGTLVTVSS
VL: QSVLTQPPSASGTPGQRVTISCSGSSSNIGRNYVYWYQQLPGTAPKLLIYRNDQRPSGVPDRFSGSKSGTSASLAISGLRSEDEADYYCAAWDDSLSGWVFGTGTKLTVL
modifications: Synthetic Antibody
notes: also as scFv in CAR
koff, kinetics toward antigen with 0 µM MTX [1]: 0.013 s⁻¹ | kon, kinetics toward antigen with 0 µM MTX [1]: 71000 M⁻¹ s⁻¹ | koff, kinetics toward antigen with 10 µM MTX ([1]; 10 µM MTX): 0.033 s⁻¹ | kon, kinetics toward antigen with 10 µM MTX ([1]; 10 µM MTX): 24000 M⁻¹ s⁻¹

B3: P08_E05: anti-EGFR reference clone, less than 2-fold MTX effect; VH SEQ ID NO: 131, VL SEQ ID NO: 132 (antibody, V domains shown)
VH: QVQLVESGGGLVQAGGSLRLSCAASRRSSRSWAMHWVRQAPGKGLEWVAVISYDGRLKYYADSVKGRFTISRDNAEYLVYLQMNSLRAEDTAVYYCAADGKGAAWSEVDEPDVWGQGTLVTVSS
VL: QSVLTQPPSASGTPGQRVTISCSGSSSNIGSNYVYWYQQLPGTAPKLLIYQNNQRPSGVPDRFSGSKSGTSASLAISGLRSEDEADYYCAAWDDSLSGLVFGTGTKLTVL
modifications: Synthetic Antibody
koff, kinetics toward antigen with 0 µM MTX [1]: 0.071 s⁻¹ | kon, kinetics toward antigen with 0 µM MTX [1]: 200000 M⁻¹ s⁻¹ | koff, kinetics toward antigen with 10 µM MTX ([1]; 10 µM MTX): 0.073 s⁻¹ | kon, kinetics toward antigen with 10 µM MTX ([1]; 10 µM MTX): 150000 M⁻¹ s⁻¹

B4: P15_F02: anti-EGFR clone with conditional affinity; VH SEQ ID NO: 135, VL SEQ ID NO: 136; also as scFv in CAR (antibody, V domains shown)
VH: QVQLVESGGGLVQAGGSLRLSCAASRRSSRSWAMHWVRQAPGKGLEWVAVISYDGRLKYYADSVKGRFTISRDNAEYLVYLQMNSLRAEDTAVYYCAAARDVDGSGYDTIDVWGQGTLVTVSS
VL: QSVLTQPPSASGTPGQRVTISCSGSSSNIGRNYVYWYQQLPGTAPKLLIYSNNQRPSGVPDRFSGSKSGTSASLAISGLRSEDEADYYCAAWDDSLSGVWVFGTGTKLTVL
modifications: Synthetic Antibody
notes: also as scFv in CAR
koff, kinetics toward antigen with 0 µM MTX [1]: 0.022 s⁻¹ | kon, kinetics toward antigen with 0 µM MTX [1]: 82000 M⁻¹ s⁻¹ | koff, kinetics toward antigen with 10 µM MTX ([1]; 10 µM MTX): 0.13 s⁻¹ | kon, kinetics toward antigen with 10 µM MTX ([1]; 10 µM MTX): 50000 M⁻¹ s⁻¹

B5: P01_H04: anti-EGFR clone with conditional affinity; VH SEQ ID NO: 127, VL SEQ ID NO: 128 (antibody, V domains shown)
VH: QVQLVESGGGLVQAGGSLRLSCAASRRSSRSWAMHWVRQAPGKGLEWVAVISYDGRLKYYADSVKGRFTISRDNAEYLVYLQMNSLRAEDTAVYYCAADMDDMLSYYNSFDIWGQGTLVTVSS
VL: QSVLTQPPSASGTPGQRVTISCSGSSSNIGRNYVYWYQQLPGTAPKLLIYRNNQRPSGVPDRFSGSKSGTSASLAISGLRSEDEADYYCAAWDDSLSGWVFGTGTKLTVL
modifications: Synthetic Antibody
koff, kinetics toward antigen with 0 µM MTX [1]: 0.076 s⁻¹ | kon, kinetics toward antigen with 0 µM MTX [1]: 85000 M⁻¹ s⁻¹ | Kd [1, 2]: > 1800 nM
